To fix the notation:
B1: TEV protease; numbered along this chain (parent)
chain: MGESLFKGPRDYNPISSSICHLTNESDGHTTSLYGIGFGPFIITNKHLFRRNNGTLVVQSLHGVFKVKDTTTLQQHLVDGRDMIIIRMPKDFPPFPQKLKFREPQREERICLVTTNFQTKSMSSMVSDTSCTFPSGDGIFWKHWIQTKDGQCGSPLVSTRDGFIVGIHSASNFTNTNNYFTSVPKNFMELLTNQEAQQWVSGWRLNADSVLWGGHKVFMVKPEEPFQPVKEATQL

This test covers variants of B1. Description: raw area under fraction-flipped curve 0-4 h after induction (AUC4h, not background-subtracted), DNA-recorder readout of cleavage of the substrate (dimensionless); higher = more cleavage of the substrate by the protease variant. The following applies: temperature: 34 °C; time window: 0-4 h after rhamnose induction. How it is done:
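In vivo DNA recorder in E. coli TOP10(DE3) ΔrhaA at 34 °C. Each TEVp single-site mutant (parent TEVp 0) is paired with a single-site variant of the 7-mer TEVs (canonical ENLYFQ|S). The substrate sits between flexible linkers in a Bxb1-sfGFP-TEVs-SsrA fusion, so cleavage stabilises Bxb1 and speeds flipping of a recombination array, read by NGS. The value is the raw area under the fraction-flipped curve over 0-4 h after rhamnose induction (AUC4h), with ≥20 reads per time point. It is not background-subtracted; inactive controls average about 0.047.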

Results on five variants are retold here after the supplement of paper PMC12217912.

This is one part of the list. The full chains were built here from the parent and the listed change. Values near 0.05 are background.
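Also: Bxb1 expression induced with 0.2% (w/v) L-rhamnose at OD600 near 0.5, cultures sampled hourly, flipped fraction per protease–substrate barcode pair counted by paired-end Illumina sequencing.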

On to MGESLFKGPRDYNPISSSICHLTNESDGHTTSLYGIGFGPFIITNKHLFRRNNGTLVVQSLHGVFKVKDTTTLQQHLVDGRDMIIIRMPKDFPPFPQKLKFREPQREERICLVTTNFQTKSMSSMVSDTSCTFPSGDGIFWKHWIQTKDGQCGSPNVSTRDGFIVGIHSASNFTNTNNYFTSVPKNFMELLTNQEAQQWVSGWRLNADSVLWGGHKVFMVKPEEPFQPVKEATQL [L156N], for which the “area with substrate CNLYFQS” value came to 0.053, the “area with substrate DNLYFQS” value is 0.051, the “area with substrate GNLYFQS” value was found to be 0.051 and the “area with substrate HNLYFQS” value worked out at 0.0499. The “area with substrate INLYFQS” value came to 0.0607, the “area with substrate LNLYFQS” value was 0.0676, the “area with substrate NNLYFQS” value came out at 0.0517 and the “area with substrate PNLYFQS” value was found to be 0.0793. Also, the “area with substrate SNLYFQS” value was found to be 0.057, the “area with substrate TNLYFQS” value is 0.0455, the “area with substrate VNLYFQS” value came to 0.058 and the “area with substrate WNLYFQS” value is 0.0551. Also, the “area with substrate YNLYFQS” value worked out at 0.0364.

MGESLFKGPRDYNPISSSICHLTNESDGHTTSLYGIGFGPFIITNKHLFRRNNGTLVVQSLHGVFKVKDTTTLQQHLVDGRDMIIIRMPKDFPPFPQKLKFREPQREERICLVTTNFQTKSMSSMVSDTSCTFPSGDGIFWKHWIQTKDGQYGSPLVSTRDGFIVGIHSASNFTNTNNYFTSVPKNFMELLTNQEAQQWVSGWRLNADSVLWGGHKVFMVKPEEPFQPVKEATQL [C152Y]: the “area with substrate CNLYFQS” value is 0.0654, the “area with substrate FNLYFQS” value is 0.0472, the “area with substrate GNLYFQS” value was 0.0453 and the “area with substrate HNLYFQS” value is 0.0618. Also, the “area with substrate INLYFQS” value is 0.0626, the “area with substrate LNLYFQS” value amounted to 0.0584, the “area with substrate MNLYFQS” value is 0.0763 and the “area with substrate PNLYFQS” value was found to be 0.0572. For the same variant, the “area with substrate RNLYFQS” value was 0.0659, the “area with substrate SNLYFQS” value was found to be 0.0591 and the “area with substrate YNLYFQS” value turned out to be 0.0506.

For the variant MGESLFKGPRDYNPISSSICHLTNESDGHTTSLYGIGFGPFIITNKHLFRRNNGTLVVQSLHGVFKVKDTTTLQQHLVDGRDMIIIRMPKDFPPFPQKLKFREPQREERICLVTTNFQTKSMSSMVSDTSCTFPSGDGIFWKHWIQTKDGQTGSPLVSTRDGFIVGIHSASNFTNTNNYFTSVPKNFMELLTNQEAQQWVSGWRLNADSVLWGGHKVFMVKPEEPFQPVKEATQL [C152T], the “area with substrate CNLYFQS” value was determined as 0.0634, the “area with substrate DNLYFQS” value amounted to 0.0662, the “area with substrate GNLYFQS” value stood at 0.0641 and the “area with substrate HNLYFQS” value worked out at 0.0572. In addition, the “area with substrate INLYFQS” value was 0.0687, the “area with substrate KNLYFQS” value worked out at 0.0627, the “area with substrate MNLYFQS” value was 0.0607 and the “area with substrate NNLYFQS” value came to 0.0534. Also, the “area with substrate SNLYFQS” value is 0.0574, the “area with substrate TNLYFQS” value came to 0.0328 and the “area with substrate WNLYFQS” value amounted to 0.0585.

Consider MGESLFKGPRDYNPISSSICHLTNESDGHTTSLYGIGFGPFIITNKHLFRRNNGTLVVQSLHGVFKVKDTTTLQQHLVDGRDMIIIRMPKDFPPFPQKLKFREPQREERICLVTTNFQTKSMSSMVSDTSCTFPSGDGIFWKHWIQTKDGQCGSPLVSTRDGFIVGIHSASNFRNTNNYFTSVPKNFMELLTNQEAQQWVSGWRLNADSVLWGGHKVFMVKPEEPFQPVKEATQL [T174R], for which the “area with substrate CNLYFQS” value amounted to 0.084, the “area with substrate DNLYFQS” value turned out to be 0.0554, the “area with substrate FNLYFQS” value was determined as 0.0517 and the “area with substrate GNLYFQS” value came to 0.0471. For the same variant, the “area with substrate INLYFQS” value was 0.0649, the “area with substrate KNLYFQS” value came to 0.0762, the “area with substrate LNLYFQS” value turned out to be 0.0535 and the “area with substrate MNLYFQS” value is 0.0696. The “area with substrate NNLYFQS” value was found to be 0.071, the “area with substrate PNLYFQS” value was 0.0628, the “area with substrate QNLYFQS” value came to 0.0577 and the “area with substrate SNLYFQS” value came to 0.0574. Also, the “area with substrate TNLYFQS” value turned out to be 0.0577, the “area with substrate VNLYFQS” value is 0.0636, the “area with substrate WNLYFQS” value came to 0.0569 and the “area with substrate YNLYFQS” value was determined as 0.0573.

For MGESLFKGPRDYNPISSSICHLTNESDGHTTSLYGIGFGPFIITNKHLFRRNNGTLVVQSLHGVFKVKDTTTLQQHLVDGRDMIIIRMPKDFPPFPQKLKFREPQREERICLVTTNFQTKSMSSMVSDTSCTFPSGDGIFWKHWIQTKDGQCGSPLVSTTDGFIVGIHSASNFTNTNNYFTSVPKNFMELLTNQEAQQWVSGWRLNADSVLWGGHKVFMVKPEEPFQPVKEATQL [R160T], the “area with substrate CNLYFQS” value is 0.0722, the “area with substrate FNLYFQS” value stood at 0.0633, the “area with substrate HNLYFQS” value amounted to 0.0619 and the “area with substrate MNLYFQS” value came out at 0.0586. The “area with substrate RNLYFQS” value turned out to be 0.0428, the “area with substrate TNLYFQS” value amounted to 0.0679, the “area with substrate VNLYFQS” value amounted to 0.0722 and the “area with substrate WNLYFQS” value turned out to be 0.0657.
